“And” between values parts separate entries of the source, which are not always exact repeats. Identical values can stand only once. Among all 220,000 compounds or so, about 5,700 (2.6%) were called active. The shares of active, inactive and inconclusive entries below differ from those in the screen. Calls follow the shape of the dose curve; as a rule, active = well fitted inhibition curve with a large enough effect; inconclusive = small, poorly fitted or top-dose-only effect; inactive = no such curve, though single readings can be large or run the other way. Potencies of inconclusive entries are doubtful fits and often do not repeat.
target: Lysine-specific demethylase 5B (Homo sapiens) (UniProt Q9UGL1); test: Primary screen for KDM5B Histone Demethylases FDH-coupled qHTS; details: FDH-coupled NADH fluorescence (FDH is formaldehyde dehydrogenase); activity change, negative = inhibition: at 57.7 µM (top of the series) unless noted; also: nearly all actives have a fitted effect of over 70% in size; as to activity change, negative = inhibition: 0% is about no effect
Procedure, shortened: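 Here, H3K4me3 peptide (12.5 µM in substrate mix) is demethylated by KDM5BΔAP, 200 nM final, after 10 min compound exposure. Formaldehyde product is coupled through FDH (0.25 U/mL in mix) to NADH fluorescence; 30-min ΔRFU feeds dose-response curves.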
Potency is read from the fitted curve at half-maximal effect; tags tell the direction and shape of the fitted curve.

Sequence of UniProt Q9UGL1 (Q9UGL1 whole entry, looked up): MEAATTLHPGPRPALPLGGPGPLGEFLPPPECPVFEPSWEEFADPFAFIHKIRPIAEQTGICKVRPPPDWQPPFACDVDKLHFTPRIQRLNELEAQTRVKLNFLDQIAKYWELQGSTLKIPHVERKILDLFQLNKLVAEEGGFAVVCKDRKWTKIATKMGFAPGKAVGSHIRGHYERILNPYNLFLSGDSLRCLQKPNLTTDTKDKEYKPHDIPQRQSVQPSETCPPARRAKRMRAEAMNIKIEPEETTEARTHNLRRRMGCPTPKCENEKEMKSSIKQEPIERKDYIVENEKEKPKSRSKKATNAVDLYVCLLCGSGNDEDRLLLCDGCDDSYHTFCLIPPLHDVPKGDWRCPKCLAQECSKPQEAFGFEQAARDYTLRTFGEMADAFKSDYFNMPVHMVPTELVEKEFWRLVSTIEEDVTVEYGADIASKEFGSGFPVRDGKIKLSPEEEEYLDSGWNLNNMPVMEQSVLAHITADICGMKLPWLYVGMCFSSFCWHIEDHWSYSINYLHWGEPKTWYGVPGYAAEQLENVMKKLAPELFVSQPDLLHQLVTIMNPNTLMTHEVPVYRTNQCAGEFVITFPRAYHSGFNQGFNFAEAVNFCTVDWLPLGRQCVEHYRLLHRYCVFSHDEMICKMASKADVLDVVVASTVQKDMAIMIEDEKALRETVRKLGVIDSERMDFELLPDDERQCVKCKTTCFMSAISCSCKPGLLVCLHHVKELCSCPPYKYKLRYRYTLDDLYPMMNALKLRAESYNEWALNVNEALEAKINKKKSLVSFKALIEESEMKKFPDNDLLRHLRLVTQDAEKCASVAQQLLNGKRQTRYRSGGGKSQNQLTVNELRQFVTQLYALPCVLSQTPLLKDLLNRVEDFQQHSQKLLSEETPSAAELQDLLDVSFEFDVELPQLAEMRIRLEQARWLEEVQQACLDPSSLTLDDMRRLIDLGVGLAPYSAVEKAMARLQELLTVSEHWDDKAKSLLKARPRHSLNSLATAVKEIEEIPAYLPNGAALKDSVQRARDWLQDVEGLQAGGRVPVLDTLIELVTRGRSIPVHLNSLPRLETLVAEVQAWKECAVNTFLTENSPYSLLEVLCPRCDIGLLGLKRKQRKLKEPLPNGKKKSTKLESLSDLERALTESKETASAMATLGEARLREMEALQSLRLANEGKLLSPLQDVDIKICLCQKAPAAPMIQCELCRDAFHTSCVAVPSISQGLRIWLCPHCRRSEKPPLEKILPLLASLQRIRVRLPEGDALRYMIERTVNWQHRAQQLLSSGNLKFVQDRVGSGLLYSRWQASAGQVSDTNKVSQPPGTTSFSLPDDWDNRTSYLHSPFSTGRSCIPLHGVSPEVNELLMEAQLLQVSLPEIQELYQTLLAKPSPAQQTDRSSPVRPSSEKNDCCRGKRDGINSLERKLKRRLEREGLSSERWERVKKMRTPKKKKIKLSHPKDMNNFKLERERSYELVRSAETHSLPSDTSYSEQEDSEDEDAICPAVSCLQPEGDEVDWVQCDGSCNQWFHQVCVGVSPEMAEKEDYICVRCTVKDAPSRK

SMILES | Potency | activity change, negative = inhibition
Cn1ncc2c(C(=O)N3CCCC3)cc(-c3ccc([S+](C)(=O)[O-])cc3)nc21 | active: 89.1 µM | –
CCc1ccc(N2C(=O)N(CC(=O)NC(C)CC)c3ccccc3S2(=O)=O)cc1 (stereo not drawn) | – | inactive: -4.3%
COC[C@@H]1CN(c2ncccn2)C[C@H]1C(=O)NCc1ccccn1 | active: 14.1 µM | –
COc1ccc(C2Cn3nnc(-c4noc(-c5ccccc5Cl)n4)c3CO2)cc1 (stereo not drawn) | – | inactive: -3.6%
Fc1ccc(CN2CC[C@H](c3nc4ccccc4s3)C2)cc1F | inconclusive: 28.2 µM [inhibitor, single point] | –
O=C1N[C@H](CCC(=O)N2CCC(c3nc4ccccc4[nH]3)CC2)C(=O)Nc2ccccc21 | – | inactive: 7.98%
Cc1cn2nc(C(=O)NCC(C)c3ccccc3)cc2c(N2CCCC2)n1 (stereo not drawn) | – | inactive: -1660%
O=C(Nc1cccc(C(F)(F)F)c1)c1cccc(C(=O)Nc2cccc(C(F)(F)F)c2)c1 | inconclusive: 15.8 µM [inhibitor, partial curve, poor fit] | –
Cc1cc(OCC(=O)NCCCO)c2c(C)c(C)c(=O)oc2c1 | inconclusive: 25.1 µM [inhibitor, partial curve, poor fit] | –
CSc1ccc(/C=C2\N=C(c3ccco3)OC2=O)cc1 | – | inactive: -16.4%
COc1ccccc1CNC(=O)CCC1N=C2c3ccccc3N=C(SCc3ccc(Cl)cc3)N2C1=O (stereo not drawn) | inconclusive: 15.8 µM [inhibitor, partial curve, poor fit] | –
O=C(Nc1ccc(Cl)cc1)C1CCCN(c2ncnc3nc[nH]c23)C1 (stereo not drawn) | – | inactive: 9.23%
CCCNC(=O)c1ccc(Cn2c(=O)c3cccn3c3cccnc32)cc1 | inconclusive: 12.6 µM [inhibitor, partial curve, poor fit] | –
Cc1ccc(C)c(C(=O)Nc2ccc(-c3nc4ccc(C)cc4s3)cc2)c1 | – | inactive: -46.9%
O=C1NCCN2CC3(CCN(C(=O)CC4CCCCC4)CC3)CC12 (stereo not drawn) | inconclusive: 14.1 µM [inhibitor, partial curve] | –
Cc1ccc(CNC(=O)Cc2ccc(NC(=O)N3CCSc4ncccc43)cc2)cc1 | inconclusive: 25.1 µM [inhibitor, single point] | –
O/N=C1\CCCc2c1nc(-c1ccc(F)cc1)n2O | inconclusive: 28.2 µM [inhibitor, partial curve, poor fit] | –
O=S(=O)(Nc1nc2ccccc2nc1NCC1CCCO1)c1cccc(Cl)c1 (stereo not drawn) | inconclusive: 39.8 µM [inhibitor, single point] and inconclusive: 22.4 µM [inhibitor, partial curve, poor fit] | –
COc1ccccc1CNC(=O)c1csc(NCc2ccccc2)n1 | – | inactive: -10.8%
Cc1ccc(C(=O)Nc2ccc3nc(SCC(=O)N4CCCc5ccccc54)sc3c2)cc1 | inconclusive: 15.8 µM [inhibitor, partial curve, poor fit] | –
CN(C)c1cccc(C(=O)N2CCn3nc(Cc4ccccc4)cc3C2)c1 | – | inactive: 5.38%
COc1ccc(/C=C(/C#N)c2nc3ccccc3[nH]2)cc1C | inconclusive: 35.5 µM [inhibitor, single point] | –
CCC(C)NC(=O)Cn1nc(C)c2sc(-c3ccccc3)nc2c1=O (stereo not drawn) | active: 8.91 µM | –

SMILES | Potency | activity change, negative = inhibition
NC(=O)COC(=O)c1cc(-c2ccc(F)cc2)nc2ccccc12 | inconclusive: 1.78 µM [inhibitor, full curve, poor fit] | –
COc1ccc(NC(=O)c2cc3c(=O)[nH]c(C)cn3n2)cc1OC | – | inactive: 2.28%
COc1ccc(-c2ccnc(N[C@H]3CO[C@H]4[C@@H]3OC[C@H]4OCC(=O)N(C)C)n2)cc1 | active: 35.5 µM | –
Cc1ccc(S(=O)(=O)NC2(C(F)(F)F)C(=O)Nc3c2c(=O)[nH]c(=O)n3-c2ccccc2)cc1 (stereo not drawn) | inconclusive: 15.8 µM [inhibitor, partial curve, poor fit] | –
O=C(Cc1c[nH]c2ncc(-c3ccccc3)cc12)Nc1ccc(C(F)(F)F)cc1 | – | inactive: -11.1% [at 86.2 µM]
COc1ccc(CN2CCNc3cc(-c4ccnc(C)c4)ncc3C2)cc1 | – | inactive: -18.7% [at 86.2 µM]
CN(C)C[C@@H]1CN(Cc2ccncc2)C[C@H]1NC(=O)c1ccc2c(c1)OCO2 | inconclusive: 22.4 µM [inhibitor, partial curve, poor fit] | –
Cc1ccc(CNS(=O)(=O)c2cc3[nH]c(=O)c(=O)[nH]c3cc2C)cc1 | inconclusive: 31.6 µM [inhibitor, partial curve, poor fit] | –
COc1ccccc1-c1cc(=O)c2cc(NC(=O)c3ccccc3Br)ccc2o1 | – | inactive: -21.1%
Cc1c(C(=O)NCc2cccc(Cl)c2)sc2nc3n(c(=O)c12)CCC3 | – | inconclusive: -35.3% [inhibitor]
Cc1cn2c(=O)cc(COc3ccccc3NC(=O)c3ccco3)nc2s1 | inconclusive: 39.8 µM [inhibitor, single point] | –
COCC1CN(C2CCC2)CC12CCN(C(=O)Cc1ccccc1OC)CC2 (stereo not drawn) | inconclusive: 12.6 µM [inhibitor, partial curve] | –
NC1=NC(=O)C(Cc2ccc(OC(F)(F)F)cc2)S1 (stereo not drawn) | – | inactive: 37.9%
O=C(/C=C/c1cccs1)Oc1ccc2oc3ccccc3c2c1 | – | inactive: -6.15%
CCN1CCN(c2nc3c(c(=O)[nH]c(=O)n3C)n2CC(O)COc2ccc(Cl)cc2)CC1 (stereo not drawn) | – | inactive: -18.3%
Cc1nc2nc(-c3cccs3)[nH]c2cc1Br | inconclusive: 39.8 µM [inhibitor, partial curve, poor fit] | –
CN(C)c1ccc(NC(=O)c2ccc(C#N)cc2)cc1 | – | inactive: -18.5%
CC(=O)Nc1ccc(CNC(=O)CN2CCN(C(C)=O)CC2)cc1 | – | inactive: 16.1%
CCc1cc(C(=O)NNC(=S)NC)cs1 | – | inactive: 9.57%
CCOC(=O)C(NC(=O)c1ccc(OC)cc1)(Nc1cc(Cl)ccc1OC)C(F)(F)F (stereo not drawn) | – | inactive: 5.26%
O=C(CNCc1ccccn1)N1CCc2ccccc2C1 | inconclusive: 22.4 µM [inhibitor, partial curve, poor fit] | –
COc1cc(C2CC(=O)Nc3ccsc32)ccc1OCc1ccccc1 (stereo not drawn) | – | inactive: 14.6%
O=C(N[C@H]1CCN2C(=O)c3cc(-c4ccccc4)ccc3NC(=O)[C@H]12)c1cccs1 | – | inactive: -29.9% [at 86.2 µM]

SMILES | Potency | activity change, negative = inhibition
Cc1nn(-c2ccccc2)c2c1cc1c(=O)n(C)c(=O)nc-1n2-c1ccccc1F | inconclusive: 22.4 µM [inhibitor, partial curve, poor fit] | –
CCN(CC)S(=O)(=O)c1cccc(NC(=O)c2nn(Cc3ccccc3)c(=O)c3ccccc23)c1 | – | inactive: 16.2%
CN(C)S(=O)(=O)c1ccc(Cl)c(C(=O)Nc2ccc(Cl)c3cccnc23)c1 | inconclusive: 28.2 µM [inhibitor, partial curve, poor fit] | –
CCOc1ccc(CCNC(=O)COC(=O)/C=C/c2ccc(OC)c(OC)c2)cc1OCC | inconclusive: 25.1 µM [inhibitor, partial curve, poor fit] | –
CCN1CCc2nc3sc(C(=O)Nc4cccc(Cl)c4C)c(N)c3cc2C1 | inconclusive: 25.1 µM [inhibitor, partial curve, poor fit] | –
Cn1nc(C2CCCN2)c2c(C(=O)N3CCOCC3)cc(C3CC3)nc21 (stereo not drawn) | inconclusive: 56.2 µM [inhibitor, partial curve, poor fit] | –
COCCCNC(=O)c1oc2c(c1C)-c1nn(Cc3ccccc3Cl)cc1CC2 | inconclusive: 28.2 µM [inhibitor, partial curve, poor fit] | –
CC(=O)NCCC(=O)N1Cc2ccccc2CC2(CCCN2Cc2ccncc2)C1 (stereo not drawn) | inconclusive: 50.1 µM [inhibitor, partial curve] | –
Cc1ccccc1C(=O)Nc1sc2c(c1C(=O)NCc1ccco1)CCC(C(C)(C)C)C2 (stereo not drawn) | inconclusive: 28.2 µM [inhibitor, partial curve, poor fit] | –
O=C(Nc1ccc(Cl)cc1Cl)c1ccc2ccccc2n1 | – | inactive: 16.8%
Cc1c(C)n2c3c(=O)[nH]c(=O)n(C)c3nc2n1CCNc1ccc(Cl)cc1 | – | inactive: 0.649%
Cc1cc(C)n(CC(=O)N[C@@H]2CN(Cc3ccccn3)C[C@H]2CN(C)C)n1 | inconclusive: 39.8 µM [inhibitor, partial curve, poor fit] | –
CCC1=Nc2cc(C(=O)NCCCOC)ccc2Sc2ccc(Br)cc21 | inconclusive: 5.01 µM [inhibitor, partial curve, poor fit] | –
O=C(O)c1ccc(-c2ccc(CNCc3ccccc3)o2)cc1 | inconclusive: 20 µM [inhibitor, partial curve, poor fit] | –
CC(C)CC(=O)Nc1cccc(-c2nc3ccccc3[nH]2)c1 | inconclusive: 31.6 µM [inhibitor, partial curve, poor fit] | –
O=C(NCc1ccc(C(F)(F)F)cc1)[C@@H]1Cc2nc[nH]c2CN1Cc1ccc([N+](=O)[O-])cc1 | – | inactive: -18.5%
Cn1cccc1C(=O)NC[C@H]1O[C@@H](CO)[C@@H](O)C1N1CCN(c2ccccc2)CC1 (stereo partly drawn) | inconclusive: 28.2 µM [inhibitor, partial curve, poor fit] | –
O=C(CCC1CCN(S(=O)(=O)c2ccccc2)CC1)NCc1cccc(F)c1 | – | inactive: 21.6%
c1ccc(-c2cc3c(cn2)NCCN(Cc2ccccn2)C3)cc1 | active: 35.5 µM | –
COc1ccccc1CNc1nc(-c2ccco2)nn1S(=O)(=O)c1ccc2ccccc2c1 | inconclusive: 17.8 µM [inhibitor, partial curve, poor fit] | –
Fc1ccc(CNc2ncncc2-c2nc(-c3ccccc3)no2)cc1 | inconclusive: 25.1 µM [inhibitor, partial curve] | –
CCc1ccc(CN(Cc2ccco2)c2cnc(S(C)(=O)=O)nc2C(=O)Nc2cccc(C)c2)cc1 | inconclusive: 5.62 µM [inhibitor, partial curve, poor fit] | –
